Assay results reported in patent US20240392013A1, “IL1RAP ANTIBODIES AND USES THEREOF” (STELEXIS THERAPEUTICS, LLC, priority 2021, published 2024).

B1: 74804_30O16A: anti-IL1RAP mAb; VH SEQ ID NO:2, VL SEQ ID NO:19, κ light chain (antibody, V domains shown)
VH: QVQLVQSGAEVKRPGASVKVSCKASGYTFTGYYMHWVRQAPGQGLEWMGWINPYSGGTDYAQKFQDRVTMTRDTSISTAYMELSRLRSDDTAVYYCARSYYYYGMDVWGQGITVTVSS
VL: DIVMTQSPDSLAVSLGERATINCKSSQNIINSSTNKNYLAWYKQKPGQPPKLLIYWASTRESGVPDRFSGSGSGTDFTLTISSLQAEDVAVYYCQQYYSTPFTFGGGTKVEIK
modifications: 74804_30O16A VH; 74804_30O16A VL
B2: 74804_09H05A: anti-IL1RAP mAb; VH SEQ ID NO:3, VL SEQ ID NO:20, κ light chain (antibody, V domains shown)
VH: QVQLFQSGAEVKKPGASVKVSCKASGYTFTGYYVHWVRQAPGQGLEWMGWINPNSGGTDYAQKFQGRVTMTWDTSISTAYMELSRLRSDDTAVYYCARSYYYYGMDVWGQGTTVTVSS
VL: DIVMTQSPDSLAVSLGERATINCKSSQSVLYSSNNTSYLAWYQQKPGQPPKFLIYWTSTRESGVPDRFSGSGSGTDFTLTISSLQAEDVAVYYCQQYYITPFTFGPGTKVDIK
modifications: 74804_09H05A VH; 74804_09H05A VL
B3: STLX2012-DLE: STLX2012 with Fc substitution mutations S239D, A330L, I332E; HC SEQ ID NO: 109, LC SEQ ID NO: 110 (antibody)
heavy: QVQLLQSGAEVKKPGSSVKVSCKASGGTFSIYAIDWVRQAPGQGLEWMGGIIPIFGTANSAQKFQGRVTITADKSTSTAYMELSSLRSEDTAVYYCARNGATSDAFDMWGQGTMVTVSSASTKGPSVFPLAPSSKSTSGGTAALGCLVKDYFPEPVTVSWNSGALTSGVHTFPAVLQSSGLYSLSSVVTVPSSSLGTQTYICNVNHKPSNTKVDKKVEPKSCDKTHTCPPCPAPELLGGPDVFLFPPKPKDTLMISRTPEVTCVVVDVSHEDPEVKFNWYVDGVEVHNAKTKPREEQYNSTYRVVSVLTVLHQDWLNGKEYKCKVSNKALPLPEEKTISKAKGQPREPQVYTLPPSRDELTKNQVSLTCLVKGFYPSDIAVEWESNGQPENNYKTTPPVLDSDGSFFLYSKLTVDKSRWQQGNVFSCSVMHEALHNHYTQKSLSLSPGK
light: EIVLTQSPGTLSLSPGERATLSCRASLSVSSNYLAWFQQRPGQAPRLLIHGVSRRATGIPDRFSGSGSGTDFTLTISRLEPEDFAVYYCQQYGSSPLTFGGGTKVEIKRTVAAPSVFIFPPSDEQLKSGTASVVCLLNNFYPREAKVQWKVDNALQSGNSQESVTEQDSKDSTYSLSSTLTLSKADYEKHKVYACEVTHQGLSSPVTKSFNRGEC
modifications: STLX 2012 HC DLE; STLX 2012 LC

Key:
cyIL1RAP = experiment: Kinetics of IL1RAP mAbs by Octet, cynomolgus IL1RAP; type: binding
Protocol: (§1) Antibodies were diluted in kinetics buffer (0.1% BSA, 0.02% Tween-20 and 0.05% NaN3 in PBS) and loaded onto 16 channel anti-mouse IgG Fc capture sensors (AMC, Cat #2001073; Sartorius, Göttingen, Germany). Human, huIL1RAP-His (Sino Biological, lot: MB08MA1301), and monkey, cyIL1RAP-His (Lake Pharma, NY, USA; lot:16205819371) proteins were titrated starting from the highest concentration of 100 nM and followed by 50 nM and 25 nM. Purified antibodies were loaded at 5 μg/ml in kinetics buffer. The experimental parameters selected to determine the kinetic constants were Baseline for 60 s, Loading of antibody to sensor for 180 s, Association of analyte to antibody for 120 s, Dissociation for 1200 s and Regeneration in 10 mM Glycine pH 1.7 for 4×30 s.
(§2) Regeneration cycle tracking was selected for 12 cycles. Binding to human and cynomolgus IL1RAP was measured and KD (M) kinetics were calculated. Also, the disassociation rate (Kdis) (1/s) and association rate (Kon) (1/Ms) kinetics were calculated (data not shown).

[1] = system: IL33-induced NFκB activity; experiment: HEK-BlueIL33 NFκB Reporter Assay; type: cell-based, human; conditions: nM range, read-out: IC50, inhibition of IL33-induced NFκB activity
Excerpt: HEK-Blue IL33 (Invivogen, Cat #hkb-hil33) cell line was used to monitor NFκB activity upon stimulation with IL33 cytokine. The secreted embryonic alkaline phosphatase reporter gene (SEAP) is inducible expressed under the control of IFN-β minimal promoter fused to NFκB/AP-1. HEK-BlueIL33 cells were also generated upon stable transfection with human IL1RL1 (ST2) gene. Specificity to IL33 cytokine was achieved by blockage of TNF-α and IL1 response. Cells are maintained in the presence of hygromycin (200 μg/ml), zeocin (100 μg/ml) and blasticidin (10 μg/ml).
(§3) For the functional assay, cells were plated at a density of 5×10^4 cells/well in 96-well plates. Cells were treated with each antibody at the highest concentration of 200 μg/ml followed by seven serial 1:3 dilutions and incubated for 45 minutes at 37° C./5% CO^2 in humified incubator. Cells were then stimulated with IL33 (12 μM) and incubated overnight at 37° C./5% CO2 in humified incubator. Every treatment was conducted in triplicates. Following, supernatants from each well were mixed with Quanti-Blue substrate (Invivogen, Cat #rep-qb1) according to manufacturer's recommendations and secreted SEAP was measured using spectrophotometer at 650 nm.

[2] = system: IL1-induced NFκB activity; experiment: HEK-BlueIL1β NFκB Reporter Assay; type: cell-based; conditions: nM range, read-out: IC50, inhibition of IL1-induced NFκB activity
Protocol: The HEK-Blue IL1β (Invivogen, Cat #hkb-il1b) cell line was used to monitor NFκB activity upon stimulation with IL1β cytokine. In this cell line the secreted embryonic alkaline phosphatase reporter gene (SEAP) is inducibly expressed under the control of IFN-β minimal promoter fused to NFκB/AP-1. Specificity to IL1β cytokine was achieved by blockage of TNF-α response. The cells were maintained in the presence of hygromycin (200 μg/ml) and zeocin (100 μg/ml).
as §3, with “CO2” for “CO^2”, “IL1β” for “IL33”, “(Invivogen, CA USA;” for “(Invivogen,”

hIL1RAP = target: T1, hIL1RAP (Homo sapiens, UniProt Q9NPH3); experiment: Kinetics of IL1RAP mAbs by Octet, human IL1RAP; type: binding; design: extracellular domain His-tagged, Cat #10121-H08H; His; purchased Sino Biological lot MB08MA1301 (catalogue number not given)
T1 sequence (Q9NPH3 21-367 limits assumed): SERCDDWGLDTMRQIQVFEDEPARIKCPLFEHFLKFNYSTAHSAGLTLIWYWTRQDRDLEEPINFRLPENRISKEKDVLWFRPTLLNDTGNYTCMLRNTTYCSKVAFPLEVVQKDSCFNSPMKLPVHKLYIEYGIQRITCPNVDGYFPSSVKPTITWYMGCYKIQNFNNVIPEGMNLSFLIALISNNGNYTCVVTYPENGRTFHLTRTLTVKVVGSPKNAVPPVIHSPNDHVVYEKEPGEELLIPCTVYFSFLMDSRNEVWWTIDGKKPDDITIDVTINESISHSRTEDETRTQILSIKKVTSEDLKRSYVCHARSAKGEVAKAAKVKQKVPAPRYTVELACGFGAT
Protocol: as §1, §2

SK-MEL-5 cells = experiment: Jurkat-Lucia NFAT-CD16 ADCC reporter assay against SK-MEL-5 cells; type: cell-based; conditions: SK-MEL-5 target cells
Excerpt: Methods: ADCC activity is mediated through binding of NK cell's CD16 receptors to the Fc region of antibodies. A Jurkat-Lucia NFAT-CD16 ADCC Reporter cell assay (Invivogen, Cat #jktl-nfat-cd16; https://www.invivogen.com/jurkat-lucia-nfat-adcc-adcp-cells) was used to analyze IL1RAP mAb STLX2012 for ADCC activity. Briefly, the Jurkat cell line was engineered to express the cell surface Fc receptor CD16A (FcγRIIIA) and the Lucia luciferase reporter gene. ADCC is triggered by CD16A cross-linking upon antigen-bound antibody binding at the surface of immune effector cells. Cells are maintained in the presence of zeocin (100 μg/ml) and blasticidin (10 μg/ml).
The STLX2012-DLE antibody was then analyzed for ADCC activity using the Jurkat-Lucia NFAT-CD16 ADCC Reporter cell assay, described in Example 11 above.

Row | Molecule | cyIL1RAP kdis(1/s) (cyIL1RAP) [s⁻¹] | cyIL1RAP kon(1/Ms) (cyIL1RAP) [M⁻¹ s⁻¹] | IC50 [1] [nM] | IC50 [2] [nM] | hIL1RAP kdis(1/s) (hIL1RAP) [s⁻¹] | hIL1RAP kon(1/Ms) (hIL1RAP) [M⁻¹ s⁻¹] | ADCC activity (reporter) (SK-MEL-5 cells)
1 | B1 | 0.000369 | 142700 | 12.4 | 2.31 | 0.000359 | 160500 | –
2 | B2 | 0.000408 | 141800 | 11 | 2 | 0.000272 | 165700 | –
3 | B3 | – | – | – | – | – | – | enhanced ADCC activity compared to original STLX2012 antibody
